Data as given in PubChem BioAssay AID1345082 (National Center for Advancing Translational Sciences (NCATS), 2018).
The whole screen tested about 94,000 compounds, of which about 4,000 (4.3%) were called active. This list was built around the results that the source calls inconclusive (neither active nor inactive); the mix of calls is not that of the screen. Calls come from the whole dose curve; as a rule, active = well fitted inhibition curve with a large enough effect; inconclusive = small, poorly fitted or top-dose-only effect; inactive = no such curve, though single readings can be large or run the other way. Where the call is inconclusive, the potency comes from a doubtful curve fit.
% is set by controls: 0 for no effect and ±100 for the full control effect; potency is the fitted concentration of half-maximal effect; tags give direction and shape of the fitted curve.

Experiment: Cytotoxic Profiling in NIH 3T3 Cell Line of Diverse Libraries Using Quantitative High-Throughput Screening; note: nearly all actives have a fitted effect of over 55% in size
Conditions: NIH 3T3 viability, CellTiter-Glo ATP luminescence, 48-72 h; activity change, negative = cytotoxicity: at 96.7 µM (top of the series); series mostly up to 96.7 µM
How it was run: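 Cells were seeded at 400 per well, treated with pin-transferred compound, and kept 48 or 72 hr at 37 °C before CellTiter-Glo addition and luminescence imaging of cellular ATP.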
In the case of COc1cccc([C@H]2CN(C(=O)c3ccc4cc[nH]c4c3)C[C@@H]2N)c1, the Potency is reported as inconclusive: 50.1 µM [inhibitor, partial curve, poor fit].
With CCN(C)C(=O)CCc1c(C)nn(-c2cccc(C)c2)c1Oc1ccc(F)cc1F the Potency was inconclusive: 50.1 µM [inhibitor, partial curve, poor fit].
In the case of O=C(CNC(=O)c1cccc(-c2ccsc2)c1)NCC1CC1, the “activity change, negative = cytotoxicity” value is reported as inactive: -11.8% [at 138 µM].
For Cc1noc(C)c1Cc1c(C(=O)N2CCC(c3nc(C(=O)N4CCOCC4)c(C)o3)CC2)noc1C, the “activity change, negative = cytotoxicity” value was inactive: -11.1%.
For CCCC1(CO)CCCN(Cc2nnc(-c3cccc(F)c3)o2)C1 (stereo not drawn), the Potency was inconclusive: 39.8 µM [inhibitor, partial curve].
With Cc1nc2n(c1C(=O)N(C)c1ccccc1)CCC(Nc1ccc(F)cc1)C2 (stereo not drawn) the “activity change, negative = cytotoxicity” value was inactive: -20.1% [at 138 µM].
For O=C(c1ccccc1)N1CCC2(C1)C(=O)N(Cc1ccccc1)c1ccccc12 (stereo not drawn), the Potency was inconclusive: 50.1 µM [inhibitor, partial curve, poor fit].
With Cc1cc(CNC(=O)c2cc(-c3ccc(CO)cc3)cc3c2OCCN3C)no1 the Potency was inconclusive: 39.8 µM [inhibitor, partial curve, poor fit].
With Cc1cc2nc3n(c(=O)c2n1CC(=O)NC(C)CCc1ccccc1)CCCC3 (stereo not drawn) the Potency was inconclusive: 79.4 µM [inhibitor, single point].
With Cc1ncc(CC(=O)NCC2CCN(c3cnn(C)c(=O)c3)C2)c(=O)[nH]1 (stereo not drawn) the “activity change, negative = cytotoxicity” value was inactive: -0.817%.
For COc1ccc(Nc2ccnc(N3CCCC(C(=O)NCc4cccc(Cl)c4)C3)n2)cc1 (stereo not drawn), the Potency was inconclusive: 14.1 µM [inhibitor, full curve, poor fit].
With O=C(O)C[C@@H]1CCN(C(=O)Nc2ccccc2)C[C@@H]1CC1=NCCc2cc(F)ccc21 the “activity change, negative = cytotoxicity” value was inactive: -21.7% [at 174 µM].
For COc1cccc(N2C(=O)NC(=NC3CCCCC3)C23CCN(C(=O)c2ccccc2F)CC3)c1, the Potency was inconclusive: 50.1 µM [inhibitor, partial curve, poor fit].
For COc1cccc([S+](=O)([O-])N2CCC3(CC2)NC(=O)c2ccccc2O3)c1, the Potency was inconclusive: 31.6 µM [inhibitor, partial curve].
With NC(=O)c1cccc(-c2cc3c(cn2)CN(CCc2ccccc2)CCN3)c1 the Potency was active: 89.1 µM.
For COc1ccc(CN2CC(O)CN(C(=O)CC(C)C)CC2=O)cc1 (stereo not drawn), the Potency was inconclusive: 56.2 µM [inhibitor, partial curve, poor fit].
For CC1=C[C@@H](CNS(=O)(=O)c2ccc(F)cc2)[C@H](C(C)C)C[C@H]1CC(=O)NCCN(C)C, the Potency was active: 39.8 µM.
In the case of Cc1ccc(-c2cccc(CN3C4CCC3CN(C(=O)c3ccncc3)C4)c2)c(C)c1, the Potency is reported as inconclusive: 50.1 µM [inhibitor, single point].
In the case of COCCNC(=O)[C@@H]1C[C@@H](O)CN1C1CCN(C(=O)c2cccc(C)c2)CC1, the “activity change, negative = cytotoxicity” value is reported as inactive: -3.8%.
For Cc1ccccc1CC(=O)N1CCCC(n2cc(-c3nc(-c4ccccc4)no3)nn2)C1 (stereo not drawn), the Potency was inconclusive: 56.2 µM [inhibitor, partial curve, poor fit].
With CN1C(=O)c2cccn2CC1C(=O)NCCCN1CCc2ccccc2C1 (stereo not drawn) the “activity change, negative = cytotoxicity” value was inactive: -6.03%.
For Cn1c(C(=O)NCCN2CCCCC2)cc2c1CCN(Cc1cccc(F)c1)C2, the Potency was inconclusive: 50.1 µM [inhibitor, partial curve, poor fit].
For O=C1N(C2CCOCC2)C[C@H]2CN(CCCc3ccccc3)CCN12, the “activity change, negative = cytotoxicity” value was inactive: -18% [at 174 µM].
With O=C(Cc1ccc(F)cc1)N1CCN(c2ccnc3ccnn23)CC1 the “activity change, negative = cytotoxicity” value was inactive: -28.7% [at 138 µM].
In the case of CCOc1ccccc1CN1CCCC(c2nc(-c3cccnc3)no2)CCNC(=O)CC1 (stereo not drawn), the Potency is reported as inconclusive: 70.8 µM [inhibitor, single point].
With CNC(=O)[C@@H]1CN(S(=O)(=O)c2ccc(Cl)s2)C[C@H]1c1n[nH]c(C)n1 the Potency was inconclusive: 56.2 µM [inhibitor, partial curve, poor fit].
In the case of Cc1nn(C)cc1C(C)NC(=O)CN1CCCc2nc(-c3ccccc3)ncc2C1=O (stereo not drawn), the “activity change, negative = cytotoxicity” value is reported as inactive: -25.2%.
For Cc1ccccc1C(=O)N1C(C(=O)NCc2ccccc2)COC12CCN(C(=O)c1ccco1)CC2 (stereo not drawn), the Potency was inconclusive: 50.1 µM [inhibitor, partial curve, poor fit].
In the case of O=C(NCc1ccc(F)cc1)c1ccc2nnc(C3CCCC3)n2c1, the Potency is reported as inconclusive: 79.4 µM [inhibitor, partial curve].
In the case of CCc1ccc(S(=O)(=O)c2nnn3c2nc(NCCOC)c2ccccc23)cc1, the Potency is reported as inconclusive: 56.2 µM [inhibitor, partial curve, poor fit].
In the case of Cc1nc(-c2ccccc2OC2CN(S(=O)(=O)Cc3ccccc3F)C2)no1, the Potency is reported as inconclusive: 70.8 µM [inhibitor, single point].
With O=C(C1CCN(c2nc3ncccc3o2)CC1)N1CCC(Cc2ccccc2)CC1 the Potency was inconclusive: 44.7 µM [inhibitor, partial curve, poor fit].
With Cc1ccc(CN2CCc3nc(N(C)Cc4cccnc4)[nH]c(=O)c3CC2)s1 the Potency was inconclusive: 44.7 µM [inhibitor, partial curve, poor fit].
For Cc1ccccc1C(=O)N1CC(CN2C(=O)c3c(c(C)nn3-c3ccccc3)C2C)C1 (stereo not drawn), the Potency was inconclusive: 50.1 µM [inhibitor, partial curve, poor fit].
With COC(=O)CNC(=O)c1cc(-c2ccc(Cl)nc2)nc2c1cnn2C the Potency was active: 31.6 µM.
For COc1ccccc1Cn1c(=O)c(C(=O)N2CCN(C(=O)Cc3cccc(Cl)c3)CC2)nc2cccnc21, the Potency was inconclusive: 44.7 µM [inhibitor, partial curve, poor fit].
In the case of COc1ccc(-c2nc(N3CCOCC3)cc3c2CN(Cc2ccccc2)C3=O)cn1, the Potency is reported as inconclusive: 112 µM [inhibitor, partial curve, poor fit].
With O=[S+]([O-])(NC1CCN(Cc2ccc(-c3ccsc3)cc2)C1)c1cccs1 (stereo not drawn) the Potency was active: 35.5 µM.
With CC(=O)N[C@@H]1CCC[C@@H](C(=O)NC2CCOCC2)CC(=O)N(C)C1 the Potency was inconclusive: 3.16 µM [inhibitor, full curve, poor fit].
In the case of N#Cc1ccc(CN2CCC3(Cc4ccccc4NC3=O)C2)cc1 (stereo not drawn), the Potency is reported as inconclusive: 56.2 µM [inhibitor, partial curve, poor fit].
For COc1ccccc1C(=O)N1CCN(C(=O)c2nnn3c2COC(c2ccc(Cl)cc2)C3)CC1 (stereo not drawn), the Potency was inconclusive: 39.8 µM [inhibitor, partial curve].
In the case of O=C(Nc1ccccc1)N1CCCC(c2nn(-c3ccc(Cl)cc3)c(=O)[nH]2)C1 (stereo not drawn), the Potency is reported as inconclusive: 25.1 µM [inhibitor, full curve, poor fit].
In the case of CCC1CN(C(=O)c2ccc(C)c(F)c2F)CCC(=O)N1Cc1ccccc1 (stereo not drawn), the Potency is reported as inconclusive: 39.8 µM [inhibitor, full curve].
With COc1ccc(NC(=O)c2ccc3c(c2)OCCN(CCC(C)C)C3)c(F)c1 the Potency was inconclusive: 7.94 µM [inhibitor, full curve, poor fit].
In the case of FC(F)(F)c1cccc(C2=NOC3(CCCN(Cc4cccc5ccccc45)C3)C2)c1 (stereo not drawn), the Potency is reported as inconclusive: 35.5 µM [inhibitor, partial curve, poor fit].
With Cc1nc(CN2C(=O)OC3(CCN(C(=O)c4ccc(Oc5ccccc5)cc4)CC3)C2(C)c2ccccc2)cs1 (stereo not drawn) the Potency was inconclusive: 44.7 µM [inhibitor, partial curve, poor fit].
With CCC(C)CNc1ncnc2c1CN(C1CCCNCC1)C(=O)CN2C (stereo not drawn) the “activity change, negative = cytotoxicity” value was inactive: -6.17%.
With O=C(NCCc1ccccc1)C1CCCN1Cc1ccc(-c2cncnc2)cc1 (stereo not drawn) the Potency was inconclusive: 44.7 µM [inhibitor, partial curve, poor fit].
